Laboratory results from PubChem BioAssay AID1963576 (National Center for Advancing Translational Sciences (NCATS), 2024).
Hit rate of the full screen: of about 46,000 compounds, about 60 (0.1%) were called active. Another 3% or so got no clear call; they are omitted. Calls come from the whole dose curve; as a rule, active = well fitted inhibition curve with a large enough effect; inconclusive = small, poorly fitted or top-dose-only effect; inactive = no such curve, though single readings can be large or run the other way. Some of the results follow.

Test: Primary qHTS assay for Inhibitors of ovarian cancer metastasis using an organotypic tumor microenvironment (TME) model.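 For Potency: count of GFP cancer cells still attached after washing and fixation.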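 For activity change, negative = inhibition: plate controls were DMSO wells for no effect and tomatine positive control wells for full effect.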 Note: nearly all actives have a fitted effect of over 65% in size.
Details: SKOV3ip1-GFP adhesion/invasion on 3D omental model, fluorescence; series mostly up to 45.8 µM; activity change, negative = inhibition: at the top concentration
Method in brief: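 Adhesion/invasion was scored as fixed GFP-labeled SKOV3ip1 cell counts (488/509 nm), normalized to DMSO and tomatine controls. Cancer cells in serum-free medium, with four compound doses (0.36-46 umol/L), sat 2 hr at RT then 16 hr at 37 C on a 48 hr fibroblast/mesothelial/ECM culture.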
Potency is the fitted concentration of half-maximal effect.

SMILES	activity change, negative = inhibition	outcome	Potency
O=C(Nc1nc2ccc(F)cc2s1)c1nc(SCc2ccccc2F)ncc1Cl	inactive: 6.27%	–	–
O=C(CN1C(=O)COc2ccc(S(=O)(=O)N3CCOCC3)cc21)Nc1ccc(F)c(Cl)c1	–	inactive	–
Cn1c(=O)c2cc(C(=O)N3CCN(c4cccc(C(F)(F)F)c4)CC3)sc2c2ccccc21	inactive: -4.44%	–	–
Cc1cc(S(=O)(=O)Nc2cc3c(cc2Cl)n(C)c(=O)c(=O)n3C)ccc1F	inactive: -6.08%	–	–
Cc1cc(C)c(S(=O)(=O)NCCc2sc(-c3cccnc3)nc2C)c(C)c1	–	inactive	–
O=C(Nc1cc(C(F)(F)F)ccc1Cl)c1cc(-c2cccs2)nc2ccccc12	inactive: 2.02%	–	–
CCOc1ccc(NC(=O)c2ccc3c(c2)nnn3C2CCCC2)cc1	–	inactive	–
CCN(CC)S(=O)(=O)c1ccc(NC(=O)c2ccc3c(=O)n4c(nc3c2)CCCCC4)cc1	inactive: -6.12%	–	–
Cc1ccccc1CNC(=O)CCc1cn(Cc2ccccc2C)c2ccccc12	inactive: -4.85%	–	–
CC(C)(C)c1ccc(C(=O)N2CCC(c3noc(-c4ccc(S(=O)(=O)N5CCCC5)cc4)n3)CC2)cc1	inactive: -7.84%	–	–
CCOc1ccccc1N(C)C(=O)c1cc(S(=O)(=O)NCCc2ccc(Cl)cc2)ccc1F	inactive: 5.97%	–	–
CC(C)(C)C(=O)Nc1nnc2n1CCS2	–	inactive	–
Cc1c(C(=O)Nc2cccc(C(F)(F)F)c2)oc2ccc(S(=O)(=O)N3CCC4(CC3)OCCO4)cc12	inactive: -4.71%	–	–
Cc1ccc2c(c1)N(C(=O)CCC(=O)Nc1ccc(F)cc1F)CC(C)O2 (centres undefined)	inactive: 0.022%	–	–
Cc1nn(S(=O)(=O)c2ccc(F)cc2)c(C)c1S(=O)(=O)N1CCCCC1	inactive: -18.2%	–	–
CCOC(=O)c1c(C)[nH]c(C)c1S(=O)(=O)N1CCC(C(=O)NCc2cccc(C)c2)CC1	inactive: -4.28%	–	–
O=C(Nc1ccc(-c2nc3ccccc3s2)c(O)c1)c1ccc(Br)cc1	inactive: 1.01%	–	–
Cc1ccc(NC(=O)C2CCN(S(=O)(=O)c3cccc4nonc34)CC2)c(Cl)c1	inactive: 1.23%	–	–
CCc1ccccc1NC(=O)CSc1nc(C)c(C(=O)Nc2ccccc2)c(-c2ccc(Cl)cc2)c1C#N	inactive: -24.5%	–	–
Cc1cccc(NC(=O)CSc2nnc3[nH]c(=O)cc(C)n23)c1C	inactive: -5.31%	–	–
CCOC(=O)C1=C(CS(=O)(=O)c2ccc(C(C)(C)C)cc2)NC(=O)NC1c1cccc(OC)c1 (centres undefined)	inactive: 4.24%	–	–
Cc1cc(=O)c2c(O)c3c(O)cc(=O)c4c3c3c(cc(O)c1c23)C(C)(C)C=4O	inactive: -2.91%	–	–
Cc1cc(S(=O)(=O)Nc2cc3c(cc2NCc2ccccc2)n(C)c(=O)n3C)ccc1F	inactive: -2.49%	–	–
O=C(CSCc1ccc(F)cc1)N1CCc2c([nH]c3ccccc23)C1c1ccc(F)cc1 (centres undefined)	inactive: -0.907%	–	–

SMILES	activity change, negative = inhibition	outcome	Potency
O=C(CCn1c(=O)c2cccn2c2cccnc21)Nc1ccccc1Br	inactive: 6.28%	–	–
COc1ccc(-c2cc3c(=O)n(CC(=O)Nc4ccc(Br)c(C)c4)ccn3n2)cc1OC	–	inactive	–
COc1ccc(N2CCN(C(=O)c3cnc(SC)nc3C)CC2)cc1	–	inactive	–
Cc1ccc(S(=O)(=O)c2nnn3c2nc(N2CCCC2)c2sccc23)cc1C	inactive: -9.64%	–	–
Cc1ccccc1CN1C(=O)c2ccccc2S(=O)c2ccc(C(=O)NC3CCC(C)CC3)cc21 (centres undefined)	inactive: -10.2%	–	–
CC(=O)N1c2c(cc(Br)cc2S(=O)(=O)N2CCN(c3cc(C)ccc3C)CC2)CC1C (centres undefined)	inactive: 1.54%	–	–
OC[C@H](Cc1ccccc1)Nc1nc(Oc2ccc3c(c2)CCC3)nc2c1ncn2Cc1ccc(-c2ccccc2)cc1	inactive: 21.5%	–	–
O=C(c1ccc2c(c1)N(Cc1cccc(F)c1)C(=O)c1ccccc1S2)N1CCOCC1	inactive: -12.3%	–	–
COc1ccc(/C=C/C(=O)Nc2ccc3nc4c(c(Nc5ccccc5OC)c3c2)CCCC4)cc1	–	–	active: 1260 nM
Cc1ccc(S(=O)(=O)c2nnn3c2nc(N2CCN(c4ccccc4F)CC2)c2cc(Cl)ccc23)cc1C	inactive: 3.96%	–	–
COc1ccc(OC)c(NC(=O)C2=C(C)C(=O)OC23CCCCCC3)c1	inactive: 11.7%	–	–
CCc1ccc(NC(=O)c2sc3nc(C)c(Cl)c(C)c3c2NC(=O)c2ccccc2OC)cc1	–	inactive	–
CC1=C(C#N)C(NC(=O)c2ccccc2Cl)(C(F)(F)F)C(=O)N1 (centres undefined)	–	inactive	–
CCN(C(=O)CSc1nc2ncccc2[nH]1)c1ccc(C(C)C)cc1	–	inactive	–
COc1cccc(-c2ncnn2-c2sc3c(c2C#N)CCCCC3)c1OC	inactive: -2.77%	–	–
O=C(COc1ccc(Cl)cc1)Nc1nnc(S(=O)(=O)N2CCc3ccccc32)s1	–	inactive	–
CCOCCc1nn2c(=O)cc(COC(=O)CNC(=O)c3cccc(C)c3)nc2s1	–	inactive	–
Cc1ccc2c(=O)cc(C(=O)Nc3nc4ccc(Cl)cc4s3)oc2c1C	inactive: -2.23%	–	–
CCN(CC)CCCNC(=O)c1cnc(SC)nc1-c1ccccc1	inactive: 3.26%	–	–
CCN(CC)CCCNC(=O)c1cn(C)c2ccc(S(=O)(=O)N(C)C3CCCCC3)cc2c1=O	inactive: -7.28%	–	–
Cc1ccc(CN(C(=O)COc2ccc([N+](=O)[O-])cc2)c2ccccn2)cc1	inactive: 1.59%	–	–
COc1ccccc1NC(=O)c1c(NCc2ccc(OC)c(OC)c2OC)sc2c1CCC2	inactive: 0.572%	–	–
CCOC(=O)c1c(C)[nH]c(C)c1S(=O)(=O)N(C)CC(=O)N1CCN(c2ccccc2)CC1	–	inactive	–
CC(C)c1ccc(NC(=O)Cn2cc(S(=O)(=O)N3CCN(c4ccccc4F)CC3)c3ccccc3c2=O)cc1	inactive: 1.23%	–	–

SMILES	activity change, negative = inhibition	outcome	Potency
CCOc1ccc(CCNC(=O)c2cn(C)c3ccc(S(=O)(=O)N4CCCCCC4)cc3c2=O)cc1OCC	–	inactive	–
Cc1nn(CC(=O)N2CCC(C)CC2)c(=O)c2cc3sccc3n12	inactive: -1.67%	–	–
COc1ccc(CNc2nc3c(-c4cccc(C)c4)nnn3c3ccccc23)cc1	–	inactive	–
CCOc1ccc(NC(=O)c2cnc(N3CCCC3)nc2C)cc1	inactive: 3.02%	–	–
CCCCN(C)CCNC(=O)c1c2c(nc3ccccc13)C(=O)N(C1CCCCC1)C2	–	inactive	–
CCCNC(=O)CCc1nnc2ccc(N3CCN(c4cccc(OC)c4)CC3)nn12	–	inactive	–
Cc1c(C(=O)NCC(c2ccc(Cl)cc2)N2CCOCC2)oc2ccccc12 (centres undefined)	inactive: 1.06%	–	–
CCOc1ccc(N2CC(c3nc4ccccc4n3CCCOc3ccccc3)CC2=O)cc1 (centres undefined)	inactive: -2.02%	–	–
CCCCOC(=O)c1ccc(NC(=O)c2cc3c(=O)n4cccc(C)c4nc3s2)cc1	inactive: 0.821%	–	–
OC(Cn1cncn1)(Cn1cncn1)c1ccc(F)cc1F	inactive: 7.78%	–	–
Cc1cc(Cl)ccc1OCc1nc(-c2ccc(-n3cccc3)cc2)no1	inactive: 10.6%	–	–
Cc1ccc(-n2c(=O)c3cccnc3n2CC(=O)Nc2ccc(Br)cc2)cc1C	inactive: -11%	–	–
Cc1ccc(NC(=O)CCn2c(=O)c3cccn3c3ccccc32)cc1C	inactive: -13.5%	–	–
CCC(=O)N1CCc2cc(Br)cc(S(=O)(=O)CCC(=O)NCCc3cccc(C)c3)c21	–	inactive	–
Cc1ccc(CN2CCC(CNC(=O)Nc3ccc(Cl)cc3)C2)cc1 (centres undefined)	–	inactive	–
CC(C)(C)OC(=O)N1CCC(c2c(C(=O)NCCN3CCc4ccccc4C3)cnn2-c2ccc(F)cc2F)CC1	inactive: -0.993%	–	–
Cc1cc(C)cc(NC(=O)C(Cc2ccccc2)NS(=O)(=O)c2ccc3c(c2)c(=O)n(C)c(=O)n3C)c1 (centres undefined)	–	inactive	–
CCOC(=O)N1CCc2c(sc(NCc3sccc3C)c2C(=O)Nc2ccc(OC)cc2OC)C1	inactive: 0.159%	–	–
Cn1ncc2c(N3CCN(c4cccc(Cl)c4)CC3)ncnc21	inactive: -2.58%	–	–
CC(Oc1ccc(F)cc1)C(=O)N1CCC(c2nc3ccccc3s2)CC1 (centres undefined)	–	inactive	–
COc1ccc(C)cc1NC(=O)CCS(=O)(=O)c1cc2c3c(c1)CCN3C(=O)CC2	inactive: 5.74%	–	–
COc1ccccc1N1CCN(C(=O)c2nc(SC)ncc2Cl)CC1	inactive: -8.78%	–	–
O=C(Cn1c(SCCOc2ccccc2)nc2ccccc21)N1CCOCC1	inactive: 2.87%	–	–
COc1ccc(N2CC(NC(=O)/C=C\c3ccccc3)CC2=O)cc1 (centres undefined)	inactive: 6.14%	–	–

SMILES	activity change, negative = inhibition	outcome	Potency
C[C@@H](NCCCc1cccc(C(F)(F)F)c1)c1cccc2ccccc12	inactive: -13.3%	–	–
CC(=O)Nc1cccc(-n2c(=O)n(C3CC3)c(=O)c3c(Nc4ccc(I)cc4F)n(C)c(=O)c(C)c32)c1	inactive: 11.1%	–	–
CC(C)(C)C(=O)Cn1c(=O)n(-c2ccc(Cl)cc2)c(=O)c2c3c(sc21)CCCC3	–	inactive	–
O=C(/C=C/c1ccccc1)N1CCN(Cc2cc(=O)n3nc(-c4ccccc4F)sc3n2)CC1	–	inactive	–
CCOc1ccccc1CNC(=O)C1CCN(C(=O)N2CC(CC)Oc3ccc(C)cc32)CC1 (centres undefined)	–	inactive	–
CC(=O)N1CCc2cc(CNC(=O)Cc3ccc(F)cc3)ccc21	inactive: -6.12%	–	–
COc1cccc(CNC(=O)C(=O)NCC(c2ccco2)S(=O)(=O)c2cccs2)c1 (centres undefined)	inactive: 5.41%	–	–
Cc1c(C(=O)OCCOc2ccccc2)[nH]c2c1C(=O)CC(c1ccccc1)C2 (centres undefined)	inactive: -3.72%	–	–
O=C(Nc1ccc2nc(SCC(=O)N3CCOCC3)sc2c1)c1cccc(Cl)c1	–	inactive	–
Cc1cc(OCCn2cc(C(=O)c3cccs3)c3ccccc32)ccc1Cl	inactive: -5.71%	–	–
CSc1ccc(CCNC(=O)c2ccc(-c3nc(COc4ccccc4)c(C)o3)cc2)cc1	–	inactive	–
Cc1cccc(N2CCN(CCCNc3ncnc4onc(-c5ccc(Cl)cc5)c34)CC2C)c1 (centres undefined)	inactive: -9.68%	–	–
Cc1nc2c(-c3ccccc3)c(C)nn2c(C)c1CCC(=O)N1CCN(c2ccc(F)cc2)CC1	–	inactive	–
COc1cccc(CNC(=O)CCc2c(C)nc3c(c(C)nn3-c3ccc(C)c(C)c3)c2C)c1	inactive: -24.1%	–	–
Cc1c(Cl)cccc1NC(=O)COCc1cc(-c2ccc3c(c2)OCO3)on1	inactive: -0.823%	–	–
COc1ccc(Cl)cc1N(C)C(=O)c1ccc2c(=O)n3c(nc2c1)CCCCC3	inactive: -10.7%	–	–
Cc1ccc(Cn2ccn(Cc3ccccc3F)c(=O)c2=O)cc1	inactive: 7.88%	–	–
COc1ccc(CCNC(=O)CCn2c(=O)c3ccccc3n(Cc3cc(C)ccc3C)c2=O)cc1OC	–	inactive	–
Cc1cc2c(cc1NS(=O)(=O)c1ccc(F)cc1)n(C)c(=O)c(=O)n2C	inactive: -1.77%	–	–
Cc1ccc2nc(-c3ccc(Cl)c(NC(=O)COc4cccc(C)c4C)c3)oc2c1	inactive: 3.49%	–	–
Cc1cccc(NC(=O)c2ccc3snnc3c2)c1	–	inactive	–
CCN1CCOC(=O)C1CC(=O)Nc1cc(C)ccc1OC (centres undefined)	inactive: 3.73%	–	–
